# Laboratory results: PubChem BioAssay AID1030 (National Center for Advancing Translational Sciences (NCATS), 2008)
# About 16,000 (7.3%) of roughly 220,000 compounds were called active. Inconclusive results, whose numbers are uncertain, are shown with a selection of clear calls. Calls follow the shape of the dose curve; as a rule, active = well fitted inhibition curve with a large enough effect (not every such curve was filed as active); inconclusive = small, poorly fitted or top-dose-only effect, or another doubt; inactive = no such curve, though single readings can be large or run the other way. Potencies of inconclusive entries are left out as doubtful fits.
# Target: Aldehyde dehydrogenase 1A1 (Homo sapiens) (UniProt P00352)
# Test: qHTS Assay for Inhibitors of Aldehyde Dehydrogenase 1 (ALDH1A1);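 as to activity, negative = inhibition: plate controls were no enzyme wells and a reference inhibitor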
# Settings: Purified ALDH1A1, NADH fluorescence, propionaldehyde substrate; series mostly up to 75.3 µM
# Potency is read from the fitted curve at half-maximal effect; tags tell the direction and shape of the fitted curve.
# UniProt P00352, sequence (P00352 whole entry, looked up): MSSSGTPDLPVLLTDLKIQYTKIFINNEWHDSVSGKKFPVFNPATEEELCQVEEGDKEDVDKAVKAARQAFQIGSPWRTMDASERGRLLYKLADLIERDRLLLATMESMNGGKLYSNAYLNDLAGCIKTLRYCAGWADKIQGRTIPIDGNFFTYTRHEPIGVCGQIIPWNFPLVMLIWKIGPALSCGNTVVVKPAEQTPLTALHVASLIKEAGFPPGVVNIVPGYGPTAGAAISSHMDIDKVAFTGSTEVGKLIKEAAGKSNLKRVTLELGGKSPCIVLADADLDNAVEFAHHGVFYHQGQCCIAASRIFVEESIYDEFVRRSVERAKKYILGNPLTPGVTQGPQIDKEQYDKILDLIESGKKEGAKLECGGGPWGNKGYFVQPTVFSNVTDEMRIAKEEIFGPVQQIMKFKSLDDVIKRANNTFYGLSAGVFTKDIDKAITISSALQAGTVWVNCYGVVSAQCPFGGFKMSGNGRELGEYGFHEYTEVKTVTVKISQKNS
SMILES,Potency,"activity, negative = inhibition"
COc1ccc(C2C(C(C)=O)=C(O)C(=O)N2CCc2c[nH]c3ccccc23)cc1 (configuration not stated),"inconclusive [inhibitor, single point]",
CCn1c2ccccc2c2cc(/C=N/O)ccc21,inactive,
COc1ccc2c(c1)OC/C(=C/c1ccc(OC)c(OC)c1)C2=O,"inconclusive [inhibitor, single point]",
COc1ccccc1-c1nc(NCc2cccnc2)c2ccccc2n1,"inconclusive [inhibitor, single point]",
Cc1noc(C)c1COc1cccc(C(=O)OC(C)C#N)c1 (configuration not stated),"inconclusive [inhibitor, single point]",
Cc1cc(C)c2c(n1)nn1c(C)c(CCC(=O)NCc3ccco3)c(C)nc21,"inconclusive [inhibitor, partial curve]",
O=[N+]([O-])c1ccccc1Oc1ncccc1[N+](=O)[O-],"inconclusive [inhibitor, single point]",
Cc1nnc(NC(=O)c2ccc3c(c2)C(=O)N(CC2CCCO2)C3=O)s1 (configuration not stated),"inconclusive [inhibitor, partial curve]",
COc1ccc(OCCC(=O)Nc2cc(C)on2)cc1,active: 22.4 µM,
COc1cccc(CN2CCN(C(=O)c3ccc(-c4ccccc4)cc3)CC2)c1,"inconclusive [inhibitor, single point]",
Cc1cc(NC(=O)COn2nnc3ccc(Cl)cc32)no1,inactive,
CCN(CC)C1CCS(=O)(=O)C1 (configuration not stated),inactive,
CCN(CC)S(=O)(=O)c1ccc2oc(C(=O)NC3CCCc4ccccc43)c(C)c2c1 (configuration not stated),inactive,
O=C(COc1ccc2ccccc2c1)NC1CC1,inactive,
O=C(Nc1cccc([N+](=O)[O-])c1)c1ccn[nH]1,inactive,
CCC(C)NC(=O)c1c(N)n(/N=C/c2ccccn2)c2nc3ccccc3nc12 (configuration not stated),"inconclusive [inhibitor, single point]",
COC(=O)c1ccc(C(NC(=O)OCc2ccccc2)/C(=C/[C@@H](C)C(=O)NC2CCCCC2)c2cccnc2)cc1 (some centres not stated),inactive,
NS(=O)(=O)c1ccc(CNC(=O)CCSCCC(=O)NCc2ccc(S(N)(=O)=O)cc2)cc1,"inconclusive [inhibitor, single point]",
COc1ccc(-c2cc(C(=O)Nc3ccc(S(=O)(=O)Nc4onc(C)c4C)cc3)c3ccccc3n2)cc1,inactive,
O=C(O)c1ccccc1SC1CC(=O)N(C2CCCCC2)C1=O (configuration not stated),active: 0.631 µM,
O=CN1CCc2c([nH]c3ccccc23)C1c1cccc2cccnc12 (configuration not stated),inactive,
COc1ccc(NC(=O)/C(Cl)=C(/Cl)S(=O)Cc2ccccc2)cn1 (configuration not stated),active: 12.6 µM,
Cc1nc(NCc2ccccc2)c2nc(-c3ccccc3)n(CCN(C)C)c2n1,"inconclusive [inhibitor, partial curve]",
COc1ccc(-c2c(C(C)=O)c(C)nc3sc4c(c23)NC(c2ccccc2)NC4=O)cc1 (configuration not stated),"inconclusive [inhibitor, partial curve]",

SMILES,Potency,"activity, negative = inhibition"
CCN(CC)c1ccc(NC(=O)CC2Oc3ccccc3NC2=O)c(C)c1 (configuration not stated),inactive,
Cc1c(Cl)cnc(NC(=O)COC(=O)c2cccc(S(=O)(=O)N3c4ccccc4CC3C)c2)c1Cl (configuration not stated),"inconclusive [inhibitor, single point]",
Cc1ccc(N2C(=O)C3C4C=CC(CNC(=S)Nc5ccc(F)cc5)(O4)C3C2=O)cc1 (configuration not stated),active: 0.398 µM,
O=C1CC(N2CCCc3ccccc32)C(=O)N1c1ccccc1 (configuration not stated),"inconclusive [inhibitor, single point]",
CC1Cc2ccccc2N1C(=O)c1ccnc(C(C)(C)C)c1 (configuration not stated),"inconclusive [inhibitor, single point]",
O=c1cc(O)c2ccccc2n1Cc1ccccc1F,"inconclusive [inhibitor, single point]",
CC(C)(C)OC(=O)NCCc1nnc(SCC(=O)c2ccc(Cl)cc2)o1,active: 12.6 µM,
CNc1nc2c(C)cccn2c(=O)c1C=NCc1ccccc1,"inconclusive [inhibitor, single point]",
CCn1c(SCC(=O)c2ccc3c(c2)OCCO3)nnc1-c1ccco1,"inconclusive [inhibitor, single point]",
Cc1ccc(-n2cc(-c3ccccc3)c3c(N4CCOCC4)ncnc32)cc1,"inconclusive [inhibitor, single point]",
COc1ccccc1N1C(=N)S/C(=C\c2ccc(-c3ccccc3C(=O)O)o2)C1=O,"inconclusive [inhibitor, single point]",
CCC1(C)Cc2ccccc2-c2nc(NCCCO)n(-c3ccccc3)c(=O)c21 (configuration not stated),"inconclusive [inhibitor, partial curve]",
Cc1cc(=O)oc2cc(NS(=O)(=O)c3ccc(F)cc3)ccc12,"inconclusive [inhibitor, partial curve]",
COc1ccccc1N=c1scc(-c2ccc3c(c2)NC(=O)CO3)n1CC1CCCO1 (configuration not stated),"inconclusive [inhibitor, partial curve]",
c1ccc(-c2ccccc2OCCCN2CCCCC2)cc1,"inconclusive [inhibitor, partial curve]",
Cc1cccc(-c2cc3nc(-c4ccccc4)cc(N4CCC5(CC4)OCCO5)n3n2)c1,"inconclusive [inhibitor, partial curve]",
CC(C)n1nc(C(=O)OCC(=O)c2c[nH]c3ccccc23)c2ccccc2c1=O,"inconclusive [inhibitor, single point]",
NC(=NCCC[C@H](N)C(=O)O)NO,inactive,
Cc1ccc(-c2nnn(CC(=O)N(CCN3CCOCC3)C(C(=O)NC(C)(C)C)c3ccco3)n2)cc1 (configuration not stated),"inconclusive [inhibitor, partial curve]",
COC(C(=O)Nc1ccc(S(=O)(=O)Nc2c(C)cccc2C)cc1)c1ccccc1 (configuration not stated),"inconclusive [inhibitor, single point]",
COc1ccc(OC)c(NC(=O)N2CCCC(C(=O)c3ccccc3OC)C2)c1 (configuration not stated),active: 12.6 µM,
Cc1ccc(C(=O)OCC(=O)Nc2cc(F)ccc2F)cc1NC(=O)c1ccco1,inactive,
Cc1c(C(=O)Nc2ccc(Cl)cc2)c2ccccn2c1C(=O)c1ccccc1,"inconclusive [inhibitor, partial curve, poor fit]",
O=C(Nc1nnc(SCC(=O)N2CCOCC2)s1)c1ccccc1Cl,active: 22.4 µM,

SMILES,Potency,"activity, negative = inhibition"
O=C(Nc1ccccc1-c1ccccc1)c1ccc(Br)o1,"inconclusive [inhibitor, partial curve, poor fit]",
CCc1ccc(S(=O)(=O)NCC(O)COc2ccc(OC)cc2)cc1 (configuration not stated),"inconclusive [inhibitor, partial curve]",
Cc1ccc(S(=O)(=O)NC(=O)NCc2ccc(F)cc2)cc1,"inconclusive [inhibitor, partial curve]",
C=CCn1c(C)nc2c(sc3nc4c(cc32)COC(C)(C)C4)c1=O,"inconclusive [inhibitor, partial curve]",
CC1CCCC(NC(=O)CNCc2ccccc2F)C1C (configuration not stated),"inconclusive [inhibitor, single point]",
Cn1c([N+](=O)[O-])cnc1CN1CCN(CCO)CC1,,inactive: 6.48% [at 13.5 µM]
COCCCn1cc(C(=O)c2ccccc2OCC(=O)Nc2cccc(F)c2)cc(C#N)c1=O,inactive,
NS(=O)(=O)c1ccc(CNC(=S)Nc2ccc(Cl)c(Cl)c2)cc1,"inconclusive [inhibitor, single point]",
Cc1ccsc1CN(C)Cc1nc(C2CC2)no1,inactive,
CCNc1ccc(S(=O)(=O)NCCN(C)C)cc1[N+](=O)[O-],"inconclusive [inhibitor, single point]",
CC(C)C12CN3CC(C(C)C)(CN(C1)C3c1ccc3c(c1)OCO3)C2=O (configuration not stated),active: 7.94 µM,
COc1ccc(S(=O)(=O)N2CCC3(CC2)OCCO3)cc1,inactive,
Cc1ccc(C2NC(=O)c3c(sc(C)c3C)N2)c(O)c1 (configuration not stated),inactive,
CC1(C)C=Cc2c(cc3occ(-c4ccc5c(c4)OCO5)c(=O)c3c2O)O1,inactive,
COCCNc1nc(CSc2ccccc2)nc2sc(C)c(C)c12,"inconclusive [inhibitor, single point]",
CCc1[nH]c(=S)c(C#N)c(-c2ccccc2)c1C(=O)OC,"inconclusive [inhibitor, single point]",
c1ccc(CCn2c3ccccc3c3nnc(SCc4ccc5nonc5c4)nc32)cc1,"inconclusive [inhibitor, partial curve, poor fit]",
Cc1nn(-c2ccccc2)c(Cl)c1/C=N/NC(=O)C1COc2ccccc2O1 (configuration not stated),active: 2.82 µM,
Cc1c[nH]c2cccc(OCC(O)CNC(C)(C)C)c12 (configuration not stated),"inconclusive [inhibitor, single point]",
O=C(CN1c2cccc3cccc(c23)S1(=O)=O)Nc1ccccc1,"inconclusive [inhibitor, partial curve]",
COc1cccc(NC(=O)N2CCN(c3nnnn3-c3ccccc3)CC2)c1,active: 6.31 µM,
CC(C)(C)C(O)(CC#CCN1CCCC1)c1ccccc1 (configuration not stated),inactive,
CCOC(=S)SCC(=O)Nc1nccs1,"inconclusive [inhibitor, single point]",
Cc1nc2sc3c(c2c(=O)o1)CC(C)(C)OC3,"inconclusive [inhibitor, single point]",
